Out of some 350,000 compounds screened, about 9,900 (2.8%) were called active. This list was built around the results that the source calls inconclusive (neither active nor inactive); the mix of calls is not that of the screen. Calls come from the whole dose curve; as a rule, active = well fitted activation curve with a large enough effect; inconclusive = small, poorly fitted or top-dose-only effect; inactive = no such curve, though single readings can be large or run the other way. No potency is given beside an inconclusive call; the fits are too rough.
Assay: A quantitative high throughput screen for small molecules that induce DNA re-replication in MCF 10a normal breast cells. Note: nearly all actives have a fitted effect of over 50% in size.
Conditions: MCF 10A DNA re-replication, Hoechst nuclear intensity, 48 h; series mostly up to 46.1 µM
In the case of C[C@H]1CN([C@@H](C)CO)C(=O)Cc2cc(NS(=O)(=O)c3ccc(Cl)cc3)ccc2O[C@@H]1CN(C)C(=O)Nc1cccc2ccccc12, the Potency is reported as inconclusive [activator, single point].
For Fc1ccc(NC(=S)Nc2ccc(Cl)cc2)cc1, the Potency was “inactive”.
For CCN(CC(=O)Nc1ccc(NC(C)=O)cc1)C(=O)CCCOc1ccc(C(C)(C)C)cc1, the Potency was inconclusive [activator, partial curve, poor fit].
In the case of CSCCC(=O)N1CCN(CC(=O)N2CCCC2)CC1, the Potency is reported as “inactive”.
For O=C(Cc1ccccc1Cl)N1CCN(c2ncccn2)CC1, the Potency was inconclusive [activator, single point].
With Cc1ccc(OCCn2c(C3CC(=O)N(Cc4ccccc4)C3)nc3ccccc32)cc1 (stereo not drawn) the Potency was active: 11.6 µM.
With CC1(OC(=O)CCc2ccccc2)C(=O)C=C2C=C(c3ccc(C#N)cc3)N(CCc3ccccn3)C=C2C1=O (stereo not drawn) the Potency was inconclusive [activator, partial curve, poor fit].
With CCc1nnc(NC(=O)CSc2nnc(COc3ccc(C)cc3)n2-c2ccccc2)s1 the Potency was inconclusive [activator, partial curve, poor fit].
For N#CC(c1ccc(Cl)cc1)c1ccc(Cl)nn1 (stereo not drawn), the Potency was inconclusive [activator, single point].
With COc1cccc2c(=O)n(CC(=O)NC3CCCC3)ccc12 the Potency was inconclusive [activator, full curve, poor fit].
With O=C(COC(=O)CC1SC(N2CCCC2)=NC1=O)Nc1ccc(Br)cc1 (stereo not drawn) the Potency was “inactive”.
For CC1CC(C(=O)Nc2ccccc2)C(=O)O1 (stereo not drawn), the Potency was inconclusive [activator, single point].
In the case of COc1ccc(C(=O)/C=C/Nc2ccc(S(=O)(=O)Nc3onc(C)c3C)cc2)cc1, the Potency is reported as inconclusive [activator, single point].
With N#CCCN(CC(=O)O)S(=O)(=O)c1ccccc1 the Potency was inconclusive [activator, single point].
With COC(=O)C(Cc1c[nH]c2ccccc12)NC(=O)c1ccc2nc[nH]c2c1 (stereo not drawn) the Potency was “inactive”.
With COc1ccc(-n2cnnc2SCC(=O)Nc2cc(C(C)(C)C)nn2-c2ccccc2)cc1 the Potency was “inactive”.
With COc1ccc(-c2cc3ncnc(Cl)c3s2)cc1 the Potency was inconclusive [activator, partial curve, poor fit].
With COC(=O)CSc1nnc(COc2ccc([N+](=O)[O-])cc2)n1C the Potency was “inactive”.
For COc1cccc(CNCCc2c[nH]c3ccccc23)c1OCc1ccccc1, the Potency was inconclusive [activator, single point].
For CCc1cc(C(=O)N/N=C/c2ccc(OC)cc2)c2ccccc2n1, the Potency was active: 16.4 µM.
In the case of CCCCC(=O)Nc1ccc(NC(=S)NC(=O)c2ccco2)cc1OC, the Potency is reported as “inactive”.
In the case of COC(=O)c1cccc(Nc2c3c(nc4ccccc24)CCC3)c1, the Potency is reported as inconclusive [activator, single point].
For CC1CCC/C(=C\Nc2ccc(C(=O)O)c(O)c2)C1=O (stereo not drawn), the Potency was inconclusive [activator, full curve, poor fit].
In the case of Cn1c(C(=O)NCCN2CCc3ccccc3C2)cc2c(=O)[nH]c3ccccc3c21, the Potency is reported as inconclusive [activator, single point].
With CCN1CCN(c2nc3c(c(=O)[nH]c(=O)n3C)n2CCSc2nc3ccccc3s2)CC1 the Potency was “inactive”.
With C=CCN1C(c2ccc(Br)cc2)=CS/C1=C(\C#N)c1nnc(N2CCOCC2)n1-c1ccccc1 the Potency was inconclusive [activator, single point].
In the case of O=C(Nc1nccs1)c1cc(Cl)nc2ccccc12, the Potency is reported as inconclusive [activator, full curve, poor fit].
In the case of COc1ccc(-c2noc(CSc3nnc(Cc4ccccc4)n3-c3ccc(Cl)cc3)n2)cc1, the Potency is reported as inconclusive [activator, partial curve].
With CCn1c(N2CCN(CC(=O)c3c(C)n(C)c4ccc(OC)cc34)CC2)nc2c1c(=O)[nH]c(=O)n2C the Potency was “inactive”.
For O=C(O)c1ccc(-n2cc(C(=O)c3ccccc3O)cn2)cc1, the Potency was inconclusive [activator, single point].
In the case of CNC(=S)NNC(=O)c1ccc(=O)n(Cc2cccc(C(F)(F)F)c2)c1, the Potency is reported as inconclusive [activator, partial curve, poor fit].
In the case of CC(=O)Nc1ccc(S(=O)(=O)NCc2ccc(C(=O)NCc3ccc(Cl)cc3)cc2)cc1, the Potency is reported as inconclusive [activator, single point].
For CC12CCC(C/C1=N/OC(=O)c1cccc([N+](=O)[O-])c1)C2(C)C (stereo not drawn), the Potency was inconclusive [activator, single point].
For CN(Cc1ccccc1F)C(=O)c1cccc(NC(=O)CC2SC(N3CCCCC3)=NC2=O)c1 (stereo not drawn), the Potency was “inactive”.
In the case of O=C(NCCC(=O)N1CCN(S(=O)(=O)c2ccccc2Cl)CC1)Nc1ccccc1, the Potency is reported as “inactive”.
For CC(C)=CCc1c(O)c(CC=C(C)C)c2c(c1O)C(=O)CC(c1ccc(O)cc1)O2 (stereo not drawn), the Potency was inconclusive [activator, partial curve, poor fit].
With Cn1cc(/C=C(\C#N)C(=O)Nc2ncc(Cc3ccc(Cl)cc3)s2)c2ccccc21 the Potency was inconclusive [activator, partial curve, poor fit].
For COC(=O)[C@H](Cc1ccccc1)NC(=O)N1CCN(Cc2ccccc2)CC1, the Potency was “inactive”.
In the case of C#CC[N+](CC)(CC)CC#Cc1ccccc1, the Potency is reported as “inactive”.
In the case of CC1=CN2C(=N)/C(=C/c3ccc(Sc4ccc(C)cc4)o3)C(=O)N=C2S1, the Potency is reported as inconclusive [activator, full curve, poor fit].
In the case of Cc1ccc(C(=O)C2CCN(CC(=O)Nc3nc(C)cs3)CC2)cc1, the Potency is reported as “inactive”.
For CN(Cc1ccccc1)C(=O)C1CCN(Cc2ccc(F)cc2)CC1, the Potency was inconclusive [activator, partial curve, poor fit].
For N#Cc1c(-c2ccc3c(c2)OCO3)ccn2nc(-c3cccc(C(F)(F)F)c3)nc12, the Potency was inconclusive [activator, partial curve, poor fit].

Source: PubChem BioAssay AID624296 (National Center for Advancing Translational Sciences (NCATS), 2012)
Potency is the fitted concentration of half-maximal effect; tags give direction and shape of the fitted curve.
